Source: patent EP2057185B1, “POLYMYXIN DERIVATIVES AND USES THEREOF” (Northern Antibiotics Oy, priority 2006, dated 2008)
Not every detail of the peptide structures is certain; ends, links or a residue may be inferred. Bridge positions count the residues as written; N and C are the ends. Square brackets hold non-standard residues; d marks the D form. Peptide text beside a SMILES is read from it. * marks the point of attachment. Decanoyl = CCCCCCCCCC(=O)*; Octanoyl = CCCCCCCC(=O)*; Dab = NCC[C@H](N)C(=O)O; Abu = CC[C@H](N)C(=O)O

Key:
[1] = system: E. coli IH3080; assay: Growth inhibition around wells on LB agar plates; format: cell-based, Escherichia coli; details: 18 h at 37°C; for Antibacterial activity at 4 µg: growth inhibition area around a well containing 4 µg of compound; for Antibacterial activity at 10 µg: growth inhibition area around a well containing 10 µg of compound
[2] = system: A. baumannii ATCC 19606; assay: Growth inhibition around wells on LB agar plates; format: cell-based, Acinetobacter baumannii; details: for Antibacterial activity 4 µg: growth inhibition area around a well containing 4 µg; for Antibacterial activity 10 µg: growth inhibition area around a well containing 10 µg
Protocol: (§1) From an overnight-grown culture of IH3080 on LB agar, a suspension of approx. 10^8 cells/ml was prepared in 0.9% NaCl. Aliquots of this suspension were then pipetted on the agar plates and the plates were gently shaken to spread the suspension evenly on the entire surface of the plate. Thereafter, the unabsorbed part of the suspension was removed by using a Pasteur pipette. After the surface had dried, small wells (diameter, 2 mm) were drilled on the plates (five wells per plate) by using a sterile sharp-edged narrow metal tube, single-use pipette tip, and vacuum suction. Samples (4 µl and 10 µl) of the peptide solution in 0.9% NaCl (at concentrations of 1 µg/ml and 0.1 µg/ml) were then pipetted to the wells and the sample fluids were allowed to absorb. Controls included 0.9% NaCl solution without the compound to be tested. The plates were then incubated for 18 h at 37°C whereafter the diameters of growth inhibition zones around each well were measured; the diameter of the well itself was […]. Finally, the diameters were converted to surface areas of growth inhibition (in square mm).
(§2) Direct antibacterial activity of twelve NAB compounds against Acinetobacter baumannii ATCC 19606 and Pseudomonas aeruginosa ATCC 27853 was tested by using the susceptibility determination method described in Example 2. Five compounds (NAB7062, NAB734, NAB737, NAB739, and NAB740) had notable activity against A. baumannii. […] The antibacterial activity of NAB739 and NAB740 were as strong as or even stronger than that of polymyxin B.

[3] = system: Ps. aeruginosa ATCC 27853; assay: Growth inhibition around wells on LB agar plates; format: cell-based, Pseudomonas aeruginosa; details: for Antibacterial activity 4 µg: growth inhibition area around a well containing 4 µg; for Antibacterial activity 10 µg: growth inhibition area around a well containing 10 µg
Protocol: as §1, §2

[4] = system: E. coli IH3080; assay: Growth inhibition around wells on LB plates containing rifampin (sensitization); format: cell-based, Escherichia coli; details: well containing 4 µg of compound; for Antibacterial activity in the presence of rifampin concn (µg/ml) of 0: plates with no rifampin; for Antibacterial activity in the presence of rifampin concn (µg/ml) of 0.1: rifampin 0.1 µg/ml; for Antibacterial activity in the presence of rifampin concn (µg/ml) of 1.0: rifampin 1.0 µg/ml
[5] = system: A. baumannii ATCC 19606; assay: as above; format: cell-based, Acinetobacter baumannii; details: well containing 4 µg; for Antibacterial activity, rifampin 0: no rifampin (control); for Antibacterial activity, rifampin 0.1: rifampin 0.1 µg/ml; for Antibacterial activity, rifampin 0.3: rifampin 0.3 µg/ml
[6] = system: Ps. aeruginosa ATCC 27853; assay: as above; format: cell-based, Pseudomonas aeruginosa; details: well containing 4 µg; for Antibacterial activity, rifampin 0: no rifampin (control); for Antibacterial activity, rifampin 0.1: rifampin 0.1 µg/ml; for Antibacterial activity, rifampin 0.3: rifampin 0.3 µg/ml

| SMILES | Antibacterial activity at 4 µg [1] [square millimeters] | Antibacterial activity at 10 µg [1] [square millimeters] | Antibacterial activity 4 µg [2] [square millimeters] | Antibacterial activity 10 µg [2] [square millimeters] | Antibacterial activity 4 µg [3] [square millimeters] | Antibacterial activity 10 µg [3] [square millimeters] | Antibacterial activity in the presence of rifampin concn (µg/ml) of 0 [4] [square millimeters] | Antibacterial activity in the presence of rifampin concn (µg/ml) of 0.1 [4] [square millimeters] | Antibacterial activity in the presence of rifampin concn (µg/ml) of 1.0 [4] [square millimeters] | Antibacterial activity, rifampin 0 [5] [square millimeters] | Antibacterial activity, rifampin 0.1 [5] [square millimeters] | Antibacterial activity, rifampin 0.3 [5] [square millimeters] | Antibacterial activity, rifampin 0 [6] [square millimeters] | Antibacterial activity, rifampin 0.1 [6] [square millimeters] | Antibacterial activity, rifampin 0.3 [6] [square millimeters] |
| --- | --- | --- | --- | --- | --- | --- | --- | --- | --- | --- | --- | --- | --- | --- | --- |
| CCCCCCCC(=O)N[C@H](C(=O)N[C@@H](C(=O)N[C@H]1CCNC(=O)[C@H]([C@@H](C)O)NC(=O)[C@H](CCN)NC(=O)[C@H](CCN)NC(=O)[C@H]([C@@H](C)O)NC(=O)[C@@H](Cc2ccccc2)NC(=O)[C@H](CCN)NC1=O)[C@H](C)O)[C@@H](C)O [NAB 737, OA-Thr-DThr-cy[Dab-Dab-DPhe-Thr-Dab-Dab-Thr-]] (Octanoyl-T[dT][Dab][Dab][dF]T[Dab][Dab]T; lactam 3-C) | 133 | 201 | 38 | 79 | 0 | 28 | 133 | 177 | 201 | 38 | 201 | 283 | 0 | 20 | 20 |
| CCCCCCCC(=O)N[C@H](C(=O)N[C@H](C)C(=O)N[C@H]1CCNC(=O)[C@H]([C@@H](C)O)NC(=O)[C@H](CCN)NC(=O)[C@H](CCN)NC(=O)[C@H]([C@@H](C)O)NC(=O)[C@@H](Cc2ccccc2)NC(=O)[C@H](CCN)NC1=O)[C@@H](C)O [NAB 738, OA-Thr-DAla-cy[Dab-Dab-DPhe-Thr-Dab-Dab-Thr-]] (Octanoyl-T[dA][Dab][Dab][dF]T[Dab][Dab]T; lactam 3-C) | 0 | 64 | 0 | 0 | 0 | 0 | 0 | 133 | 177 | 0 | 95 | 154 | 0 | 13 | 13 |
| CCCCCCCC(=O)N[C@H](C(=O)N[C@H](CO)C(=O)N[C@H]1CCNC(=O)[C@H]([C@@H](C)O)NC(=O)[C@H](CCN)NC(=O)[C@H](CCN)NC(=O)[C@H](CC(C)C)NC(=O)[C@@H](Cc2ccccc2)NC(=O)[C@H](CCN)NC1=O)[C@@H](C)O [NAB 739, OA-Thr-DSer-cy[Dab-Dab-DPhe-Leu-Dab-Dab-Thr-]] (Octanoyl-T[dS][Dab][Dab][dF]L[Dab][Dab]T; lactam 3-C) | 133 | 177 | 113 | 177 | 38 | 79 | 133 | 177 | 201 | 113 | 177 | 314 | 38 | 64 | 64 |
| CCCCCCCCCC(=O)N[C@H](C(=O)N[C@H](CO)C(=O)N[C@H]1CCNC(=O)[C@H]([C@@H](C)O)NC(=O)[C@H](CCN)NC(=O)[C@H](CCN)NC(=O)[C@H](CC(C)C)NC(=O)[C@@H](Cc2ccccc2)NC(=O)[C@H](CCN)NC1=O)[C@@H](C)O [NAB 740, DA-Thr-DSer-cy[Dab-Dab-DPhe-Leu-Dab-Dab-Thr-]] (Decanoyl-T[dS][Dab][Dab][dF]L[Dab][Dab]T; lactam 3-C) | 95 | 133 | 133 | 201 | 64 | 133 | 95 | 95 | 95 | 133 | 154 | 154 | 64 | 64 | 64 |
| CCCCCCCCCC(=O)N[C@H](C(=O)N[C@@H](CC)C(=O)N[C@H]1CCNC(=O)[C@H]([C@@H](C)O)NC(=O)[C@H](CCN)NC(=O)[C@H](CCN)NC(=O)[C@H](CC(C)C)NC(=O)[C@@H](Cc2ccccc2)NC(=O)[C@H](CCN)NC1=O)[C@@H](C)O [NAB 7062, DA-Thr-Abu-cy[Dab-Dab-DPhe-Leu-Dab-Dab-Thr-]] (Decanoyl-T[Abu][Dab][Dab][dF]L[Dab][Dab]T; lactam 3-C) | 50 | 99 | 13 | 38 | 0 | 0 | 50 | 104 | 104 | 13 | 50 | 95 | 0 | 0 | 7 |
| CC(C)C[C@@H]1NC(=O)[C@@H](Cc2ccccc2)NC(=O)[C@H](CCN)NC(=O)[C@@H](NC(=O)[C@H](CCN)NC(=O)[C@@H](N)[C@@H](C)O)CCNC(=O)[C@H]([C@@H](C)O)NC(=O)[C@H](CCN)NC(=O)[C@H](CCN)NC1=O [Polymyxin B nonapeptide, reference compound] (H-T[Dab][Dab][Dab][dF]L[Dab][Dab]T; lactam 3-C) | 0 | 0 | 0 | 0 | 113 | 177 | 0 | 20 | 113 | 0 | 133 | 154 | 113 | 113 | 154 |
